Among all 200,000 compounds or so, about 10 (0.005%) were called active. Inconclusive results, whose numbers are uncertain, are shown with a selection of clear calls. Calls come from the whole dose curve; as a rule, active = well fitted inhibition curve with a large enough effect; inconclusive = small, poorly fitted or top-dose-only effect, or effect the other way, or another doubt; inactive = no such curve, though single readings can be large or run the other way. Potencies of inconclusive entries are left out as doubtful fits.
Molecular target: Lysosomal alpha-glucosidase (Homo sapiens) (UniProt P10253)
Test: qHTS Assay for Inhibitors of Human alpha-Glucosidase as a Potential Chaperone Treatment of Pompe Disease;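 for activity change, negative = inhibition: plate controls were uninhibited enzyme wells for no effect and no-enzyme background for full effect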
Conditions: purified human GAA, 4-MU-alpha-glucoside fluorescence; activity change, negative = inhibition: at 76.9 µM (top of the series) unless noted
How it was run: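 Endpoint fluorogenic read: 20 min room-temperature reaction of 4 nM human alpha-glucosidase with 400 uM 4-methylumbelliferyl-alpha-D-pyranoside, pH 5.0, quenched with 1M NaOH/1M glycine pH 10. AC50 from Hill modeling.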
Potency is the fitted concentration of half-maximal effect; tags give direction and shape of the fitted curve.

Row | Structure (SMILES) | Potency | activity change, negative = inhibition
1 | CN1CCN(c2ccc(NC(=O)COc3ccccc3Cl)cc2)CC1 | inconclusive [inhibitor, full curve, poor fit] | 
2 | Cc1ccc(-c2nnc(SCC#N)n2N)cc1 |  | inconclusive: -15.9% [inhibitor]
3 | O=C(CN1CCN(S(=O)(=O)c2ccc(Br)cc2)CC1)N/N=C/c1ccc(Cl)c([N+](=O)[O-])c1 | inconclusive [inhibitor, partial curve] | 
4 | O=C(NNC(=O)c1cccnc1)NC1CCCCC1 |  | inactive: 1.57%
5 | O=C(Nc1sc2c(c1C(=O)NCc1ccco1)CCCC2)c1ccc2c(c1)OCO2 | inconclusive [activator, partial curve] | 
6 | Cc1cc(CNC(=O)COc2ccc(C#N)cc2)c2ccccc2n1 |  | inconclusive: 15.5% [activator]
7 | COc1ccccc1Oc1c(C)oc2cc(OC(=O)c3ccco3)ccc2c1=O | inconclusive [activator, partial curve] | 
8 | COc1ccc2c(c1)C=C(C(=O)NCc1ccc(Cl)cc1)CO2 | inconclusive [inhibitor, single point] | 
9 | CCCCN(CC)Cc1ccc(CNC(=S)Nc2c(C)cc(C)cc2C)o1 |  | inconclusive: -20.4% [inhibitor]
10 | O=C(c1cccc(S(=O)(=O)N2CCOCC2)c1)N1CCCc2ccccc21 | inconclusive [inhibitor, single point] | 
11 | CC(NC(=O)CCSc1nc(-c2ccc3c(c2)OCO3)cc(C(F)(F)F)n1)c1ccccc1 (centres undefined) | inconclusive [activator, partial curve] | 
12 | COc1ccc(-c2cc(=O)oc3c(C)c(OC(=O)c4cccs4)ccc23)cc1 | inconclusive [inhibitor, full curve, poor fit] | 
13 | O=C(CSc1ncccc1-c1nc2ccccc2[nH]1)N1CCCCC1 |  | inconclusive: 17.6% [activator]
14 | CCN(CCNC(=O)C1CCN(Cc2nc(-c3cccc(Cl)c3)oc2C)CC1)c1ccccc1 | inconclusive [inhibitor, partial curve, poor fit] | 
15 | C#CCN1C(=O)C(O)(CC(=O)c2ccc3c(c2)OCCO3)c2ccccc21 (centres undefined) | inconclusive [inhibitor, partial curve, poor fit] | 
16 | COc1ccc(N(CC(=O)NCc2ccc(Cl)cc2)S(=O)(=O)c2ccccc2[N+](=O)[O-])c(OC)c1 | inconclusive [inhibitor, single point] | 
17 | CC1=CC=CC2=NC(=O)CC(C)(C(=O)N(CC(=O)NC3CCCC3)c3ccccc3C)N12 (centres undefined) | inconclusive [activator, single point] | 
18 | CCCCn1c(SCC(=O)NC(C)CC)nc2ccc(N3CCOCC3)cc2c1=O (centres undefined) |  | inactive: -6.35%
19 | Cc1cc(=O)[nH]c(CN2CCC(c3ccccc3)CC2)n1 |  | inconclusive: -21.7% [inhibitor]
20 | Cc1onc(-c2ccccc2Cl)c1C(=O)Nc1ccc(N2CCOCC2)cc1 | inconclusive [inhibitor, full curve] | 
21 | CCNc1nc(Cl)nc(N(NC(C)=O)C(C)CC)n1 (centres undefined) | inconclusive [inhibitor, single point] | 
22 | CN(Cc1ccccc1)CC(O)COc1ccc(CNCc2ccc(Cl)s2)cc1 (centres undefined) | inconclusive [inhibitor, partial curve] | 

Row | Structure (SMILES) | Potency | activity change, negative = inhibition
23 | Cc1ccc(-n2c(-c3cccs3)nc3nc4ccccc4nc32)cc1 | inconclusive [activator, partial curve] | 
24 | Cc1ccc(S(=O)(=O)N2CCC(C(=O)N3CCC[C@H]3C(=O)NC3CCS(=O)(=O)C3)CC2)cc1 (some centres undefined) | inconclusive [inhibitor, single point] | 
25 | Cc1ccc2c3c1C1(C(=O)N3C(C)(C)CC2C)C(C#N)=C(N)Oc2cc(O)ccc21 (centres undefined) |  | inconclusive: -18.6% [inhibitor]
26 | C=C(C)C1CC=C(C)/C(=N/NC(=O)COc2cccc3ccccc23)C1 (centres undefined) | inconclusive [inhibitor, single point] | 
27 | O=C(CCc1ccccc1)NNC(=O)Cc1ccccc1 |  | inconclusive: 18.7% [activator]
28 | CC1N(C)c2cccc3cccc(c23)N1C |  | inactive: 4.54%
29 | CC1=CC=CN2C1=NC(=O)CC2(C)C(=O)N(CC(=O)NC1CCCC1)c1ccccc1C (centres undefined) | inconclusive [activator, partial curve] | 
30 | CC(OC(=O)c1ccc2ncsc2c1)C(=O)Nc1ncc(Cl)cc1Cl (centres undefined) |  | inactive: 0.785%
31 | COCCOC(=O)C1=C(C)NC2=C(C(=O)CC(C)(C)C2)C1c1cccnc1 (centres undefined) | inconclusive [activator, partial curve] | 
32 | Nc1nc2ccccc2n1C(=O)c1ccccc1 |  | inactive: 2.4%
33 | COc1ccc2occ(C(=O)c3ccc(N=C(C)N(C)C)cc3)c2c1 | inconclusive [inhibitor, single point] | 
34 | CCN1CCCc2cc(CN(CCN3CCOCC3)C(=S)Nc3ccc(OC)c(OC)c3)ccc21 |  | inactive: -3.52%
35 | O=C(Cn1c(-c2ccccn2)nc2ccccc21)NCCN1CCOCC1 |  | inconclusive: -17.4% [inhibitor]
36 | CC1(CC(=O)N/N=C/c2cc([N+](=O)[O-])c(O)cc2O)OCCO1 | inconclusive [inhibitor, full curve] | 
37 | CCC(=O)N(C)CCc1cc2c(c(OC)c1/C=N/NC(=O)c1ccc(Br)cc1)OCO2 |  | inconclusive: 15.4% [activator]
38 | COc1ccc(S(=O)(=O)NCC2CCC(C(=O)NCCC(C)C)CC2)cc1 (centres undefined) | inconclusive [inhibitor, single point] | 
39 | COc1ccc(-n2c(N)c(C(=O)NCc3ccco3)c3nc4ccccc4nc32)cc1OC | inconclusive [activator, partial curve] | 
40 | COc1ccc(CNC(=O)C2CC(c3cccc(OC)c3)=NO2)cc1 (centres undefined) | inconclusive [inhibitor, single point] | 
41 | Cc1c(-n2c(SCC(N)=O)nc3ccccc3c2=O)c(=O)n(-c2ccccc2)n1C | inconclusive [inhibitor, single point] | 
42 | Cc1ccc(CNC(=O)CN(C)S(=O)(=O)c2cccc3nsnc23)cc1 | inconclusive [inhibitor, single point] | 
43 | COc1ccc2nc(-c3cccc(N)c3)[nH]c2c1 |  | inactive: 0.987%
44 | O=C(O)C1C2C=CC(C2)C1C(=O)NCc1cccs1 (centres undefined) |  | inconclusive: 17.4% [activator]

Row | Structure (SMILES) | Potency | activity change, negative = inhibition
45 | COc1ccc(-n2c(O)c(/C=N/NS(=O)(=O)c3ccc(C)c([N+](=O)[O-])c3)c3ccccc3c2=O)cc1OC | inconclusive [activator, full curve, poor fit] | 
46 | CCCCn1c(=O)[nH]c(=O)c2c1nc(-c1ccc(OCCC)c(OCC)c1)n2CCOC | inconclusive [inhibitor, partial curve] | 
47 | O=c1ccc(NS(=O)(=O)c2ccc(Cl)cc2)cn1Cc1ccc(Cl)c(Cl)c1 | inconclusive [inhibitor, single point] | 
48 | CCC(=O)N1CCN(c2ccc(NC(=O)c3c(F)c(F)c(OC)c(F)c3F)cc2)CC1 | inconclusive [inhibitor, single point] | 
49 | CN1CCN(NC(=O)CN2C(=O)S/C(=C\c3c(Cl)cccc3Cl)C2=O)CC1 |  | inconclusive: 17.8% [activator]
50 | CCOC(=O)c1cnc2ccc(C)cc2c1Sc1ccc(F)cc1 | inconclusive [inhibitor, single point] | 
51 | CCOC(=O)c1sc(NC(=O)Nc2ccc(Cl)cc2)nc1C | inconclusive [inhibitor, full curve, poor fit] | 
52 | Cc1cc2nnc(SCC(=O)N3CCCCC3)n2c(N)n1 |  | inconclusive: 18.8% [activator]
53 | CCc1ccccc1N=C1S/C(=C/c2ccccc2OCC(=O)N2CCOCC2)C(=O)N1C | inconclusive [inhibitor, full curve] | 
54 | C=C(CC1([C@@H](NP(=O)(c2ccccc2)c2ccccc2)[C@H]2C[C@@H]2CCCC)CC1)c1ccccc1 | inconclusive [inhibitor, full curve, poor fit] | 
55 | CSc1cccc(NC(=O)CCCOc2ccccc2)c1 | inconclusive [inhibitor, full curve] | 
56 | CCCOc1ccc(N2C(=O)C3ON(c4ccccc4)C(CCC)C3C2=O)cc1 (centres undefined) | inconclusive [inhibitor, single point] | 
57 | CCOC(=O)C1=C(CSc2nc(-c3ccncc3)ccc2C#N)OC(N)=C(C#N)C1c1ccc(OC)cc1 (centres undefined) |  | inconclusive: -17.7% [inhibitor]
58 | CN(C(=O)c1ccc(OC2CCN(CCc3ccccc3)CC2)cc1)C1CCOC1 (centres undefined) |  | inconclusive: 15.1% [activator]
59 | NC(=O)c1ccc(N=C2C(=O)Nc3ccc([N+](=O)[O-])cc32)cc1 | inconclusive [inhibitor, single point] | 
60 | CCOC(=O)NN1C(=O)c2ccccc2NC12CCCC2 | inconclusive [activator, single point] | 
61 | Nc1n[nH]c2c1C1(CCCC1)Cc1ccccc1-2 | inconclusive [inhibitor, partial curve, poor fit] | 
62 | OC(c1ccc(Cl)cc1)C(O)c1nc2ccccc2[nH]1 (centres undefined) | inconclusive [inhibitor, partial curve] | 
63 | Cc1ccc(-c2nc(CS(=O)CC(=O)NCc3ccccc3)c(C)o2)cc1 (centres undefined) | inconclusive [inhibitor, full curve, poor fit] | 
64 | Cc1ccc2c(c1)c1cccc3c1n2CCN3CCC(N)=O | inconclusive [activator, partial curve] | 

Reference: PubChem BioAssay AID1466 (National Center for Advancing Translational Sciences (NCATS), 2008)
